The results in this text go back to the RNAGym collection of RNA variant scans (doi:10.7554/elife.90254).

The source gives no read counts; variants with many changes may rest on few reads.

B1: LINE1-mini (parent)
chain: GGCAGAGCUCAACACAGCGUGGCAAAGUGGCUGUGGCUAGACUGCC

In this series the parent is B1. The experiment in a line: self-cleavage, relative activity (ratio to wild type); higher = more cleavage; in vitro, sequencing; the parent is a self-cleaving ribozyme.
Take A12U G19A U34A: the self-cleavage was 0.06. Under A12U U28A C31G U34C A39G stands 0.01; under C13A C23U G35C, 0.79. Next, A12G G33C C45A: 0.01; C13A G19U G29U G40C: 0.04. Next, C13A G22U G30A C31U G33A: 0.03; C13A G22U U34C: 0.07. Consider C13A A14G C18U G44C, for which the self-cleavage turned out to be 0.06.

As for C13A A26U U38A, the self-cleavage came out at 0.01. As for C13G C37G G44U, the self-cleavage was 0.07. Under A12U C15U U34G stands 0.06; under C13G C15A G21A A26G, 0.12. Take A12G G33C G40U: the self-cleavage stood at 0.03. Under A12U G19C G22U C31G stands 0.03. For A12U A14G C42G G44U, the self-cleavage is 0.03. For C13A A24U A25C, the self-cleavage was 0.01. Next, A12U C18A G22A: 0.09. Take A12U G29U U38A C46U: the self-cleavage turned out to be 0.09.

Regarding C13A G27A C45G, the self-cleavage was determined as 0.09. Under A12U C13U A14U stands 0.03; under A12U G21U A26C, 0.59; under C13A G22U C46A, 0.11.

In the case of A12U A26G G33A, the self-cleavage was 0.02. Under C13A C15A U38G stands 0.17; under A12U G19U G33A G40A, 0.01. Under A12U C15G G19A stands 0.11; under A12U G17U C23U, 0.05. As for A12U C13U G40A, the self-cleavage amounted to 0.03. Next, C13G G21U A26U G36C A41G C42U: 0.02; C13A G17U U34C: 0.21; C13G A26C C45G: 0.03. Next, C13G A16G C23A U32A: 0.02. Consider A12U G40U U43A, for which the self-cleavage was found to be 0.08.

For the variant C13A G17A G33U, the self-cleavage worked out at 0.01.

As to A12U A14U U34C C37G, the self-cleavage stood at 0.02. Take C13A A25U C37U: the self-cleavage was determined as 0.01.

On to A12U A14U A16U U20G G22C G29A C46U, for which the self-cleavage stood at 0.03. Under C13A C15A G17C stands 0.01. On to C13A C23G A26U U43C, for which the self-cleavage was determined as 0.08. Under C13A G17C C31A G40A stands 0.01; under A12U C18A U43C, 0.01; under C13G G19U G30A, 0.01. As to C13A A16U C37U, the self-cleavage amounted to 0.26. Next, A12G U34C G36U: 0.02.

On to C13A C18A G21U A26G, for which the self-cleavage is 0.37. Take A12U U32G C37A: the self-cleavage was determined as 0.02. Next, A12U G35U A41C C46A: 0.01; C13G A24G G29A C31A A41C C46G: 0.02; C13A G19C C31G A39U: 0.08.

In the case of C13A U20A A24C C31A A41U C45U, the self-cleavage was 0.

In the case of C13A G30A U38A C42U, the self-cleavage was 0.09.

Take A12U A25C C42A C45U: the self-cleavage stood at 0.05. Regarding A12U C15G G29U A41C, the self-cleavage came out at 0.05. Under C13A A25G C37A U43A stands 0.11; under C13A G35U U38G G40U, 0.04; under A12G U20C C31U C45A, 0.03. As to C13A G35C A41C, the self-cleavage was found to be 0.03. As to A12U G19A G22C A24C, the self-cleavage was 0.04.

Turning to A12U A14C C45U, the self-cleavage was 0.04. Next, C13A C15A G27A G30A U32A: 0.07. For the variant C13A G19A G21U A25U U38C, the self-cleavage stood at 0.05. Next, C13A A24U C42G C45U: 0.02; C13A A16G C45A: 0.04. Next, A12G U20C G27U: 0.02; A12U G19U C31A G36U C46G: 0.01; C13A G19A C46G: 0.04. Under C13A A16G C18A G19A C31U C46G stands 0.01; under C13A G33U G40C, 0.06. Regarding A12U A26U A39G, the self-cleavage was found to be 0.04. Next, C13G C15A A16U C23G G27A G36C: 0.04; A12U G35U C45G: 0.03; A12U G36C U43C: 0. Turning to A12U C23A G35C C45U, the self-cleavage was 0.11. Regarding C13G C42G C45U C46G, the self-cleavage is 0.03. Under C13A U20A G27U G33C G40C C46A stands 0.02; under A12G G30C G40C, 0.04; under C13G A16C G22A A25C, 0.

With C13A C23U G44U, the self-cleavage amounted to 0.01. Next, C13A C23U U28G: 0.02.

Turning to A12U U28G C46U, the self-cleavage was 0.29. Under A12G G27U G35A stands 0.03; under C13A C23G G30C C31U, 0.06; under C13A G30U C37A G44A C45A, 0.01.

Turning to A12U G21U G33A C42A, the self-cleavage was 0.42. Next, A12G G29U C37U: 0.01; C13A G21U C31G: 0.02; C13A A25G G33A: 0.02. Next, C13A G40U G44U C45U: 0.11; A12U A14U C15A G17A G19C C23U G30U G44U: 0.01. Under A12G G22U G40C stands 0; under A12U A14C C15A G21A, 0.03.

On to C13A U20G C23G, for which the self-cleavage worked out at 0.02.

For the variant A12U G21U A24G, the self-cleavage turned out to be 0.45. Regarding C13A C18A G29C A41G, the self-cleavage is 0.03. Under A12G U20C A26C G27U G30C G36U C46U stands 0.02. Under A12G G22A U28C stands 0.02. Next, A12U A16C C42U: 0.02; A12U G30C A41U G44U: 0.08. Turning to A12U G27A G44U, the self-cleavage worked out at 0.11.

With A12U C31A U43A, the self-cleavage came out at 0.03.

As to A12U C13U U32A G36U, the self-cleavage is 0.03. On to C13A C23U C46U, for which the self-cleavage amounted to 0.04. Under C13G G19U U32C G35A stands 0.04; under C13A G22C G44C, 0.03; under C13G C23A A39U, 0.02. Next, C13A A14U G33U: 0.11; C13G C15G G17U: 0.07; A12G G33A G36U: 0.14. Next, C13A A14U U32G A41U: 0.03. Regarding C13A G30U U32A G40U, the self-cleavage is 0.04.

A12U G22U C37G A41C: the self-cleavage is 0.

With A12G G27C G35A A39U, the self-cleavage is 0. Turning to C13A A14U G21U A24G, the self-cleavage stood at 0.01. Under A12U G21C C37A A41U stands 0.04; under C13G G21A G27A C46A, 0.25; under C13A G30A G36C, 0.09. For C13G A16G G33A C42U, the self-cleavage came to 0. Next, C13G C31A U38G: 0.02; C13G C15G G22U G30C: 0.02; C13G G17U C42A: 0.02. Under C13A C15A G22C U28A G29C U38A stands 0.21; under A12G G22A U32A, 0.04; under A12U G19U G44C, 0.09. Next, A12U A26G G29U: 0.76; C13A G17A A25G G35U G36C A41G: 0.01. For the variant C13G G17U G19A A24U G27A G29C, the self-cleavage is 0.02. Next, C13A A26U G27U: 0.01; C13G G21C G22A G29A U43G: 0.37; C13A C15U G19A A25C: 0.15.

Regarding C13G A16U G30A, the self-cleavage turned out to be 0.08. Under A12G U28C G30U U38A A39U C42G stands 0; under A12U G22U A26U, 1.13. Take C13A G19U C45G: the self-cleavage was 0.08. Turning to A12U C13U G17A G21U, the self-cleavage amounted to 0.03. Next, C13A C15A G22A C46U: 0.09; A12G U28C G35A: 0.01. Next, A12U G29A U38G C42A: 0; C13A G35U G40A: 0.15. Take A12U C45U C46U: the self-cleavage was determined as 0.28. Next, A12U C15A C42U: 0.04; C13A A39G G40A: 0.01; A12U C13G A16C G21U: 0.

For A12U C15A G30A, the self-cleavage was 0.03. Under C13A G40U C42G stands 0.14.

For the variant A12G G22U G35C, the self-cleavage was found to be 0.03.

Turning to C13A A14C G22U, the self-cleavage came to 0.06. On to C13G G29A U34G, for which the self-cleavage was 0.07. As for C13A A14G C15U G29U C46A, the self-cleavage was determined as 0.27. Under A12G U32G G35U stands 0.29; under C13A U28G G30U G35U C37A G44C C46A, 0.03; under C13A A16U G17A G30C C37A, 0.06. Next, A12U G21A G22U U34C G40U: 0.04. Next, A12U C23U G27C C37U A39C: 0.01. With A12U U20G U43C G44A, the self-cleavage stood at 0.03. Next, C13A C18G G33A U34A: 0.12; A12U U20G C23A A24C U34C G40U: 0. Next, C13A U20A G33C: 0.02; C13A C18U G22C A25C G30A: 0.15; C13G C15G U32G: 0.05. Under C13A G27U G35A G44U stands 0.07; under A12U G22U A26U U38A, 0.13. As for A12U C13U G27U, the self-cleavage was determined as 0.16. Turning to A12U G36A C37A A39U, the self-cleavage came out at 0.12. In the case of C13G A24U G29C G30C, the self-cleavage was found to be 0.1. Under C13G A25U U32A G35U stands 0.02; under C13A A16U G36A, 0.1; under A12U A25U U34A G36C A39G, 0.
